The values that follow come from paper PMC12136788.

First the molecules themselves.
B1: chr3:186556460:186556561:-|CDS|ENSG00000113838|unk|total|mutant (ssRNA)
RNA: GGGAGUUCUACAGUCCGACGAUCAGAGCCAGGAAGAUCUAUCCACUUCAUGAACUUGCACUGUGGCAACCACUGCAUGCAGACCGUGGCUUCUCAAAGAUCUCUAAGACUUUCUCUUUCUACAAACUGGAAACCUGGUUGAGGCAACAGAGGAUUGAGCAUCA
B2: chr19:17405403:17405546:-|CDS|ENSG00000130303|unk|FALSE|unique (ssRNA)
RNA: GGGAGUUCUACAGUCCGACGAUCUGACUAUUGCAGAGUGCCCAUGGAAGACGGGGAUAAGCGCUGUAAGCUUCUGCUGGGGAUAGGAAUUCUGGUGCUCCUGAUCAUCGUGAUUCUGGGGGUGCCCUUGAUUAUCUUCACCAUCAACAGAGGAUUGAGCAUCA
B3: chrX:85861749:85861850:-|3pUTR|ENSG00000188419|msi1|total|mutant (ssRNA)
RNA: GGGAGUUCUACAGUCCGACGAUCCUAAUUUAAAAUUUCAGAAAAUGCUAUUAAAGAAUUUUGAUUCAAGUAUUUAAACUGUUCCGUUAUGCAUGCUUCUUAUUAACCGAAAAUGAUAAUACCAUUCCGUUCCGUGAUCAGUAUCAACAGAGGAUUGAGCAUCA
B4: chr11:57661263:57661364:+|CDS|ENSG00000172409|unk|total|mutant (ssRNA)
RNA: GGGAGUUCUACAGUCCGACGAUCCCACCUACUGAGUGUCCGCACUGCCGAGGGUACAGAGGAGAACCUGUCCGAGACAAGUGCCGCUGGCUUCAUUGUGGUGACCAGUGUGGACCUGGAGCAUCAGGUGUUUACUGUUCUGUCCAACAGAGGAUUGAGCAUCA
B5: chr9:83806335:83806438:-|CDS|ENSG00000165113|unk|total|mutant (ssRNA)
RNA: GGGAGUUCUACAGUCCGACGAUCUGGCUCUGAUUCUGAACCUGGAAAAGGUAAAGGUCGAAAUACUGGAAAGUCUCAAACUUCCGGAAGCAAGUCAACUACAAAUGAGAAAAAAAGAGAGAAAAGAAGAAAAAAGAAGGAACACAACAGAGGAUUGAGCAUCA
B6: ENSG00000139350:stop:overlap|stop_codon|ENSG00000139350|stop_codon|NA|stop_codon (ssRNA)
RNA: GGGAGUUCUACAGUCCGACGAUCAUUUAUCUAGUACUCCUUUUGGCCAUGGUAGUAACCAGGCUCUCCAAUCCAGUGUUGAAUAGAAGUGAUGAUAGUGGACAUCUUUAUUUUGUCCCCAAAUUCUGGAAGAAGCAUUCAAUUCAACAGAGGAUUGAGCAUCA
B7: ENSG00000198663:stop:overlap|stop_codon|ENSG00000198663|stop_codon|NA|stop_codon (ssRNA)
RNA: GGGAGUUCUACAGUCCGACGAUCUUAUAGCCAGAGGGGUCCAGCCUUUGGUCAUCUGCGAUGGAACCGCUUUCUCAGAACUGUAGGAAAUAGAACUGUGCACAGGAACAGCUUCCAGAGCCGAAAACCAGGUUGAAAGGGGAACAACAGAGGAUUGAGCAUCA
B8: chr8:100258838:100258944:-|CDS|ENSG00000034677|unk|FALSE|unique (ssRNA)
RNA: GGGAGUUCUACAGUCCGACGAUCAGUGAAUUUGAGGCUCCAUCCCUCAGUGACAGUAUGCCUUCUGUAGCAGAUUCUCACUCUAGUCAUUUUUCUGAAUUUAGUUGUUCUGACCUAGAAAGCAUGAAAACUUCUUGUAGUCAUCAACAGAGGAUUGAGCAUCA
B9: chr10:30336814:30336915:-|CDS|ENSG00000107951|unk|FALSE|unique (ssRNA)
RNA: GGGAGUUCUACAGUCCGACGAUCGUAUUUUCCAGACUGCAUAGUCAGACCCUUUGGCUCCUCAGUCAACACUUUUGGGAAGUUAGGAUGUGAUUUGGACAUGUUUUUGGAUCUAGAUGAAACCAGAAACCUCAGCGCUCACAACAACAGAGGAUUGAGCAUCA
B10: chr3:9371215:9371332:+|CDS|ENSG00000134077|unk|FALSE|unique (ssRNA)
RNA: GGGAGUUCUACAGUCCGACGAUCUGGACAAGAAGUCAAAAUCGAUCAGAGAAAUGUUAAAAAAGAGUUCACUAGCCAUGCUUUAGAUUCUCAUAUCUUAGAUUAUUAUGAAAAUCCAGCCAUCAAAGAGGAUGUAUCAACAUUCAACAGAGGAUUGAGCAUCA
B11: ENSG00000198589:be:win_951|CDS|ENSG00000198589|bound_else_gene|NA|bound_elsewhere_windowed (ssRNA)
RNA: GGGAGUUCUACAGUCCGACGAUCAUGUUAUGUGAAUGGUGAGCUGGCUUCCUAUGGAGAGAUAACAUGGUUUGUCAACACUAGCGAUACCUUUGACAAAUGUUUCCUGGGCUCAUCAGAAACAGCAGAUGCUAAUAGAGUAUUCAACAGAGGAUUGAGCAUCA
B12: chr10:126014591:126014692:-|3pUTR|ENSG00000148848|msi1|total|mutant (ssRNA)
RNA: GGGAGUUCUACAGUCCGACGAUCAAAGGUUUGUCUCCUGAAAUUUUUUAAGUUUGUUUUCCUGACACAUGUAAUCAGAUGUGCCGCAACCGAGGGAAACGAAGCCUAACAUUCUCCAUUGUGGAAAUACACACAGGAGGUUACCAACAGAGGAUUGAGCAUCA
B13: chr19:12699786:12699848:-|3pUTR|ENSG00000105576|msi1_unk|FALSE|overlapping (ssRNA)
RNA: GGGAGUUCUACAGUCCGACGAUCCCUGCUCCAUCCAUCCCUCCUGGGCGCCAGACCCUCCAUCCAAGCCCUGUGUCUUUCCAUAGUCAGGGUCAGGCCCUGCAUCUAUUCCAAGGGGCACUCAGUACACAUUCCAUAAAUUAGCAACAGAGGAUUGAGCAUCA
B14: chr3:154334942:154337698:-|three_prime_utr|ENSG00000174948|control|control|control (ssRNA)
RNA: GGGAGUUCUACAGUCCGACGAUCAACUGUGAAACUAACACCUUUGUUAUGAGACUGAUUUCCUUUUAUUUGUUGGCUUACAUUAGUUUUACUGAUUUAAUAGUUAAUUUUUUUGUGGGAACAACUGGAACUAGUGUAAACACUCAACAGAGGAUUGAGCAUCA
B15: chr8:76864132:76864233:+|CDS|ENSG00000091656|msi1|total|mutant (ssRNA)
RNA: GGGAGUUCUACAGUCCGACGAUCUCAAGCUUGCACAAAGAGAAAACAAUCAAACAAGCAAUGAGAAAUGCCAAAGAGCAUGUCCGAUUAUUACCUCACUCAGUCUGCUCCCCUAAUCCUAACACCACAUCUACCUCGCAGUCUCAACAGAGGAUUGAGCAUCA
B16: chr3:98797553:98797658:-|3pUTR|ENSG00000057019|msi1|FALSE|unique (ssRNA)
RNA: GGGAGUUCUACAGUCCGACGAUCAUUUCAUUCAUUGAAGAAUCAAUACAUAUUUUGUUUCAAAAUGUUUGAAACAAAAGACAUAGAUGGUAGACUUUUAUUAAAACAUAUAUGGAUGUGGAAAGCACAUAUAUUAAUGCAGUCCAACAGAGGAUUGAGCAUCA
B17: chrX:65740646:65740790:+|3pUTR|ENSG00000147065|msi1|FALSE|unique (ssRNA)
RNA: GGGAGUUCUACAGUCCGACGAUCGGCCAUUCUAUUGUGGCAAGGCUGAGUAGAAGAUCCUACCCCAAUUCCUUGUAGGAGUAUAGGCCGGUCUAAAGUGAGCUCUAUGGGCAGAUCUACCCCUUACUUAUUAUUCCAGAUCUGCAACAGAGGAUUGAGCAUCA
B18: chr1:24654915:24655033:+|CDS|ENSG00000133226|unk|FALSE|unique (ssRNA)
RNA: GGGAGUUCUACAGUCCGACGAUCUCACGGUCACCACCAAAGAAGCCUCCCAAGAGGACAUCCAGCCCCCCUCGGAAAACUCGUAGGUUAUCUCCUUCAGCAAGUCCUCCAAGGCGAAGGCACAGGCCAUCACCUCCUGCAACUCAACAGAGGAUUGAGCAUCA
B19: chr19:51964856:51966214:-|CDS|ENSG00000256683|control|control|control (ssRNA)
RNA: GGGAGUUCUACAGUCCGACGAUCGCCUUCUGUGGCCCCUCAGACAUCAUUAAACAUCAGCGGCCUCCUCGCAAACAGGAACGUAGUCCUUGUGGGACAGCCAGUGGUCAGAUGUGCAGCCUCAGGAGAUAACAGAGGAUUUGCCAACAGAGGAUUGAGCAUCA
B20: chr7:77355212:77355430:-|CDS|ENSG00000186088|control|control|control (ssRNA)
RNA: GGGAGUUCUACAGUCCGACGAUCGCUCUAUAGAGCACUGCUCAGCCAGUCGUCUUUAUUACAGCUUCUGCAGAACACUUGCUUAGACUGUGAGAAGAUGGCUGCGUUGCACUGCGCGCUCUACUGCGGUCAAGGUGCGCAGUUCAACAGAGGAUUGAGCAUCA
B21: chr13:42886387:42888493:-|three_prime_utr|ENSG00000133106|control|control|control (ssRNA)
RNA: GGGAGUUCUACAGUCCGACGAUCCAUAUUUAAUCUCUACUGCCAGGGAAAUGCUACAUUAUUUUUCUAAUUGGAAGUAUAAUUAGAGUGAUGUUGGUAGGGUAGAAAAAGAGGGAGUCACUUGAUGCUUUCAGGUUAAUCAGACAACAGAGGAUUGAGCAUCA
B22: chr17:29548703:29548809:+|3pUTR|ENSG00000160551|unk|total|mutant (ssRNA)
RNA: GGGAGUUCUACAGUCCGACGAUCAGCACUUGUGAGUGAAAAAUCAUGUAAUUAUCUGUAAAUAUGCCGCUAACAAAUUGACCCCGUUUCUGUAUUUUUUUGUUUUUGUACUAAAGUUUACCGGUCUGUGCCAGCCCGAGAGAACAACAGAGGAUUGAGCAUCA

The list shows a part of the results.

The test has as its target MSI1 full-length (mouse, UniProt Q61474 1-362). The test is described as follows: nsRBNS (natural sequence RNA bind-n-seq); RBNS binding buffer (assumed for nsRBNS): 25 mM Tris pH 7.5, 150 mM KCl, 3 mM MgCl2, 0.01% Triton X-100, 500 ug/ml BSA, 20 U/ml SUPERase-In, 4 C; UNK is unkempt and MSI1 is Musashi-1; names of the RNAs are library labels; protein concentration not given here; high values mean tight binding.
Sequence of UniProt Q61474 (Q61474 whole entry): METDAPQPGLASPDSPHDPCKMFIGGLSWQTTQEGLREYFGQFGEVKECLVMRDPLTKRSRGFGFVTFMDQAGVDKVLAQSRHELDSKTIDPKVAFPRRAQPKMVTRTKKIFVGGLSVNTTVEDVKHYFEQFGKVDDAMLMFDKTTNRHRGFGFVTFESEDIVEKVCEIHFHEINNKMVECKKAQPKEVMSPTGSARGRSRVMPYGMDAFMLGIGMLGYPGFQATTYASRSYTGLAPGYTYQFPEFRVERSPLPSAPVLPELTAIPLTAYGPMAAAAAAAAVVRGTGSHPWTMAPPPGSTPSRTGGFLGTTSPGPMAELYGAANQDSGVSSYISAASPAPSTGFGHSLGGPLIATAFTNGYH
Molecule B1 yielded a binding signal of 0.376 enrichment R.

Turning to B2, the binding signal turned out to be 0.506 enrichment R.

For B3, the binding signal was 0.789 enrichment R.

With B4, the binding signal amounted to 0.361 enrichment R.

B5: the binding signal worked out at 0.502 enrichment R.

B6 showed a binding signal of 0.732 enrichment R.

The molecule B7 displayed a binding signal of 0.187 enrichment R.

B8 came in with a binding signal of 2.9 enrichment R.

B9 returned a binding signal of 0.534 enrichment R.

For the molecule B10, the binding signal was 2.21 enrichment R.

The molecule B11 had a binding signal of 9.28 enrichment R.

On to B12, for which the binding signal stood at 0.404 enrichment R.

As to B13, the binding signal turned out to be 0.904 enrichment R.

B14 yielded a binding signal of 3.06 enrichment R.

For B15, the binding signal turned out to be 0.883 enrichment R.

Regarding B16, the binding signal was determined as 1.08 enrichment R.

On to B17, for which the binding signal was 0.592 enrichment R.

The molecule B18 registered a binding signal of 0.598 enrichment R.

Molecule B19 yielded a binding signal of 0.649 enrichment R.

On to B20, for which the binding signal was found to be 0.255 enrichment R.

On to B21, for which the binding signal was determined as 0.46 enrichment R.

Turning to B22, the binding signal worked out at 1.11 enrichment R.
